According to patent US20240076343A1 (CEPHALON, published 2024):

T1: high-affinity hIL-2 receptor (IL-2Rαβγ) on NK-92 cells (human, UniProt P01589 22-272; P14784 27-551; P31785 23-369)
T1 sequence 1: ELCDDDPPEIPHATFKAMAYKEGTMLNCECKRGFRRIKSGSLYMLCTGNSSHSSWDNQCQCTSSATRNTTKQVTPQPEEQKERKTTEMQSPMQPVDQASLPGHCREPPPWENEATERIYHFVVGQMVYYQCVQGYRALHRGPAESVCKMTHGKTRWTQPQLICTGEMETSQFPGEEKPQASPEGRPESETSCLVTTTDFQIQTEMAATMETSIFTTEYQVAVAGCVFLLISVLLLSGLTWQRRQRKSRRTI
T1 sequence 2: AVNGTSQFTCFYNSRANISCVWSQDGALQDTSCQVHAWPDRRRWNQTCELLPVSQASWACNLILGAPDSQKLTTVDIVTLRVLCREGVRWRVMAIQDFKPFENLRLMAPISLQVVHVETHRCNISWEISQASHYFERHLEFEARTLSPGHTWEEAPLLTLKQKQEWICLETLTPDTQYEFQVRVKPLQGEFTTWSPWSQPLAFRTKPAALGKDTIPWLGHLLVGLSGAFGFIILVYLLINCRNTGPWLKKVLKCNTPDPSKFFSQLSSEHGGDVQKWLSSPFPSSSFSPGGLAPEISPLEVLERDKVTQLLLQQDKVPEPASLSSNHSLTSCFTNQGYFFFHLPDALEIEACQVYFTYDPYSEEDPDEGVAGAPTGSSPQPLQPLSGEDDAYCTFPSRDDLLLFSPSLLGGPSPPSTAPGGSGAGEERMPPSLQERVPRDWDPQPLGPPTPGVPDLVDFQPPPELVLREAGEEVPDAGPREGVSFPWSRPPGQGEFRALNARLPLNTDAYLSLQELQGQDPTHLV
T1 sequence 3: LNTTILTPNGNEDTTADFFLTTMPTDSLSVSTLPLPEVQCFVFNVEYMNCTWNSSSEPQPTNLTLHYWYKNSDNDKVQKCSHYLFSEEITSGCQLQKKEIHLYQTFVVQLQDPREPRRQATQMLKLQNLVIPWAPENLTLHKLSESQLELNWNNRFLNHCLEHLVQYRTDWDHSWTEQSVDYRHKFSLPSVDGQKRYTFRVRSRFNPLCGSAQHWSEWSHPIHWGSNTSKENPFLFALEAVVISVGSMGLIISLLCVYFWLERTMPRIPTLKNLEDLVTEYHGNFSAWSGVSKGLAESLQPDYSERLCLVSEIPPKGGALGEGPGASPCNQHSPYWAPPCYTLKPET

T2: intermediate-affinity hIL-2 receptor (IL-2Rβγ) on TF1+IL-2Rβ cells (human, UniProt P14784 27-551; P31785 23-369)
T2 sequence 1: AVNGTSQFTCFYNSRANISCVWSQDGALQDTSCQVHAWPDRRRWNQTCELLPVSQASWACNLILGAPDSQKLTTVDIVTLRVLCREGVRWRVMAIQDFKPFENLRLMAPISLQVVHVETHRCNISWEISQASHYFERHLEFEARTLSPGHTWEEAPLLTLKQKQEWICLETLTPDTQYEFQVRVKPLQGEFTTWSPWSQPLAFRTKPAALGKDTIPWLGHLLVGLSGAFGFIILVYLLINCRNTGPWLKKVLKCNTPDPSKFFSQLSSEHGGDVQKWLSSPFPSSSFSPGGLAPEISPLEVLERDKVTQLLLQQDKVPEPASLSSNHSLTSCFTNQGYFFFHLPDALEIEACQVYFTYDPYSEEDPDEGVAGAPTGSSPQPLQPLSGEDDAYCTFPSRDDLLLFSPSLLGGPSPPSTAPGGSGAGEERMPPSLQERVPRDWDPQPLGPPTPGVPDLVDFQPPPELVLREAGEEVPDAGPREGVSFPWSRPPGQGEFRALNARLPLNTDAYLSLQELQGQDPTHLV
T2 sequence 2: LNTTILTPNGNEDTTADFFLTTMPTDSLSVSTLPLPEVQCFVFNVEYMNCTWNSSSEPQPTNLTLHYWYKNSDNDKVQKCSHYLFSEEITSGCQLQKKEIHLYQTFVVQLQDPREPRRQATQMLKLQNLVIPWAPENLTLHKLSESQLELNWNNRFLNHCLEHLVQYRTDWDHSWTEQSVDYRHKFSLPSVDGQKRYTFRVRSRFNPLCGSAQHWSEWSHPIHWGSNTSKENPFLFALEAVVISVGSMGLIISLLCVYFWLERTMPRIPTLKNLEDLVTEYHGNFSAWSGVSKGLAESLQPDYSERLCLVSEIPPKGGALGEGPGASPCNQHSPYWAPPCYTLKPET


Assays:
[1] = molecular target: T3, recombinant His-tagged human PD-1 (Acro Biosystems) (human, UniProt Q15116 part only); experiment: SPR Carterra LSA;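 also: antibodies or fusion proteins amine-coupled on an HC30M chip, soluble His-tagged human or cynomolgus PD-1 titrated over them, non-regenerative kinetics, constants fitted from titration curves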
T3 construct: His-tagged; also called hPD-1

[2] = molecular target: T4, recombinant His-tagged cynomolgus PD-1 (Acro Biosystems) (cynomolgus, UniProt B0LAJ3 25-170); experiment: SPR Carterra LSA;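 also: antibodies or fusion proteins amine-coupled on an HC30M chip, soluble His-tagged human or cynomolgus PD-1 titrated over them, non-regenerative kinetics, constants fitted from titration curves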
T4 construct: His-tagged; also called Cyno PD-1; not shown: His tag (and any linker) of the Acro Biosystems product

[3] = molecular target: T1, high-affinity hIL-2 receptor (IL-2Rαβγ) …; experiment: cell-based or functional assay
[4] = molecular target: T2, intermediate-affinity hIL-2 receptor …; experiment: cell-based or functional assay
[5] = molecular target: T2, intermediate-affinity hIL-2 receptor …; experiment: cell-based or functional assay; remark: listed apart in the source

T3 sequence (Q15116 25-167 limits assumed): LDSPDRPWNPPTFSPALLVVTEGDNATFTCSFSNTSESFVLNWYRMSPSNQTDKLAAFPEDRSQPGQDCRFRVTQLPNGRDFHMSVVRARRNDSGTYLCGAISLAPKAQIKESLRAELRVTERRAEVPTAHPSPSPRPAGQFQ
T4 sequence (B0LAJ3 entry or part of it limits assumed): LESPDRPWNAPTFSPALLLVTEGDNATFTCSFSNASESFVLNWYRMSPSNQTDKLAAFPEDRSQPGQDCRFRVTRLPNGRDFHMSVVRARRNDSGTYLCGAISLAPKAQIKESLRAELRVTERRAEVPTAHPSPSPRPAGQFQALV

Binder	Kd [1]	koff [1]	kon [1]	Kd [2]	koff [2]	kon [2]	Fold change from rhIL-2 (NK-92) [3]	Fold change from rhIL-2 (TF1 + IL-2Rβ) [4]	Fold decrease from rhIL-2 (TF1 + IL-2Rβ + hPD-1) [5]
2H7-hIgG4-LAGA-df-hIL-2 (T3A/D20A/R38E/C125A) (other, antibody-hIL-2 fusion; also called 2H7-hIgG4-LAGA-hIL-2 (T3A/D20A/R38E/C125A)) heavy: EVQLLESGGGLVQPGGSLRLSCAASGFTFKDYCMTWVRQAPGKGLEWVSAIVYSGGSTYYADSVKGRFTISRDNSKNTLYLQMNNLRAEDTAVYYCAKYTRASYFYDAMDVWGQGTTVTVSSASTKGPSVFPLAPCSRSTSESTAALGCLVKDYFPEPVTVSWNSGALTSGVHTFPAVLQSSGLYSLSSVVTVPSSSLGTKTYTCNVDHKPSNTKVDKRV[not shown - human IgG4 Fc with S228P L235A G237A (EU numbers)]APASSSTKKTQLQLEHLLLALQMILNGINNYKNPKLTEMLTFKFYMPKKATELKHLQCLEEELKPLEEVLNLAQSKNFHLRPRDLISNINVIVLELKGSETTFMCEYADETATIVEFLNRWITFAQSIISTLT light: EIVLTQSPGTLSLSPGERATLSCRASQSIGKSFLAWYQQKPGQAPRLLIYDASTRAADIPARFSGSGSGTDFTLTISSLEPEDFAVYYCQQYYDWPPLSFGGGTKVEIKRTVAAPSVFIFPPSDEQLKSGTASVVCLLNNFYPREAKVQWKVDNALQSGNSQESVTEQDSKDSTYSLSSTLTLSKADYEKHKVYACEVTHQGLSSPVTKSFNRGEC	4.8 nM	0.00082 s⁻¹	170000 M⁻¹ s⁻¹	10 nM	0.00098 s⁻¹	96000 M⁻¹ s⁻¹	> 10000 fold	~7480 fold	~1 fold
2H7-hIgG4-LAGA-df-hIL-2 (T3A/R38E/I92K/C125A) (other, antibody-hIL-2 fusion; also called 2H7-hIgG4-LAGA-hIL-2 (T3A/R38E/192K/C125A)) heavy: EVQLLESGGGLVQPGGSLRLSCAASGFTFKDYCMTWVRQAPGKGLEWVSAIVYSGGSTYYADSVKGRFTISRDNSKNTLYLQMNNLRAEDTAVYYCAKYTRASYFYDAMDVWGQGTTVTVSSASTKGPSVFPLAPCSRSTSESTAALGCLVKDYFPEPVTVSWNSGALTSGVHTFPAVLQSSGLYSLSSVVTVPSSSLGTKTYTCNVDHKPSNTKVDKRV[not shown - human IgG4 Fc with S228P L235A G237A (EU numbers)]APASSSTKKTQLQLEHLLLDLQMILNGINNYKNPKLTEMLTFKFYMPKKATELKHLQCLEEELKPLEEVLNLAQSKNFHLRPRDLISNINVKVLELKGSETTFMCEYADETATIVEFLNRWITFAQSIISTLT light: EIVLTQSPGTLSLSPGERATLSCRASQSIGKSFLAWYQQKPGQAPRLLIYDASTRAADIPARFSGSGSGTDFTLTISSLEPEDFAVYYCQQYYDWPPLSFGGGTKVEIKRTVAAPSVFIFPPSDEQLKSGTASVVCLLNNFYPREAKVQWKVDNALQSGNSQESVTEQDSKDSTYSLSSTLTLSKADYEKHKVYACEVTHQGLSSPVTKSFNRGEC	3.7 nM	0.00082 s⁻¹	220000 M⁻¹ s⁻¹	11 nM	0.0011 s⁻¹	100000 M⁻¹ s⁻¹			~1 fold
2H7-hIgG4-LE-df-hIL-2 (T3A/R38E/I92K/C125A) (other, antibody-hIL-2 fusion; also called hIgG4-LE-hIL-2 (T3A/R38E/192K/C125A)) heavy: EVQLLESGGGLVQPGGSLRLSCAASGFTFKDYCMTWVRQAPGKGLEWVSAIVYSGGSTYYADSVKGRFTISRDNSKNTLYLQMNNLRAEDTAVYYCAKYTRASYFYDAMDVWGQGTTVTVSSASTKGPSVFPLAPCSRSTSESTAALGCLVKDYFPEPVTVSWNSGALTSGVHTFPAVLQSSGLYSLSSVVTVPSSSLGTKTYTCNVDHKPSNTKVDKRV[not shown - human IgG4 Fc with changes]APASSSTKKTQLQLEHLLLDLQMILNGINNYKNPKLTEMLTFKFYMPKKATELKHLQCLEEELKPLEEVLNLAQSKNFHLRPRDLISNINVKVLELKGSETTFMCEYADETATIVEFLNRWITFAQSIISTLT light: EIVLTQSPGTLSLSPGERATLSCRASQSIGKSFLAWYQQKPGQAPRLLIYDASTRAADIPARFSGSGSGTDFTLTISSLEPEDFAVYYCQQYYDWPPLSFGGGTKVEIKRTVAAPSVFIFPPSDEQLKSGTASVVCLLNNFYPREAKVQWKVDNALQSGNSQESVTEQDSKDSTYSLSSTLTLSKADYEKHKVYACEVTHQGLSSPVTKSFNRGEC	4.7 nM	0.00088 s⁻¹	190000 M⁻¹ s⁻¹	12 nM	0.0011 s⁻¹	95000 M⁻¹ s⁻¹			~1 fold
